Measured values published in paper PMC4336329 (PLoS ONE, 2015).
Out of some 310,000 compounds screened, about 14,000 (4.5%) showed an effect of 50% or more. The effect is printed as a negative number. Some of the results follow.

Target: human ether-à-go-go-related gene (hERG) potassium channel (human, UniProt Q12809)
Test: primary screen, population patch clamp on CHO cells stably expressing hERG
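Note: peak tail current of the secondary pulse compared with the same well before compound.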

Sequence of human ether-à-go-go-related gene (hERG) potassium channel (Q12809 whole entry, looked up): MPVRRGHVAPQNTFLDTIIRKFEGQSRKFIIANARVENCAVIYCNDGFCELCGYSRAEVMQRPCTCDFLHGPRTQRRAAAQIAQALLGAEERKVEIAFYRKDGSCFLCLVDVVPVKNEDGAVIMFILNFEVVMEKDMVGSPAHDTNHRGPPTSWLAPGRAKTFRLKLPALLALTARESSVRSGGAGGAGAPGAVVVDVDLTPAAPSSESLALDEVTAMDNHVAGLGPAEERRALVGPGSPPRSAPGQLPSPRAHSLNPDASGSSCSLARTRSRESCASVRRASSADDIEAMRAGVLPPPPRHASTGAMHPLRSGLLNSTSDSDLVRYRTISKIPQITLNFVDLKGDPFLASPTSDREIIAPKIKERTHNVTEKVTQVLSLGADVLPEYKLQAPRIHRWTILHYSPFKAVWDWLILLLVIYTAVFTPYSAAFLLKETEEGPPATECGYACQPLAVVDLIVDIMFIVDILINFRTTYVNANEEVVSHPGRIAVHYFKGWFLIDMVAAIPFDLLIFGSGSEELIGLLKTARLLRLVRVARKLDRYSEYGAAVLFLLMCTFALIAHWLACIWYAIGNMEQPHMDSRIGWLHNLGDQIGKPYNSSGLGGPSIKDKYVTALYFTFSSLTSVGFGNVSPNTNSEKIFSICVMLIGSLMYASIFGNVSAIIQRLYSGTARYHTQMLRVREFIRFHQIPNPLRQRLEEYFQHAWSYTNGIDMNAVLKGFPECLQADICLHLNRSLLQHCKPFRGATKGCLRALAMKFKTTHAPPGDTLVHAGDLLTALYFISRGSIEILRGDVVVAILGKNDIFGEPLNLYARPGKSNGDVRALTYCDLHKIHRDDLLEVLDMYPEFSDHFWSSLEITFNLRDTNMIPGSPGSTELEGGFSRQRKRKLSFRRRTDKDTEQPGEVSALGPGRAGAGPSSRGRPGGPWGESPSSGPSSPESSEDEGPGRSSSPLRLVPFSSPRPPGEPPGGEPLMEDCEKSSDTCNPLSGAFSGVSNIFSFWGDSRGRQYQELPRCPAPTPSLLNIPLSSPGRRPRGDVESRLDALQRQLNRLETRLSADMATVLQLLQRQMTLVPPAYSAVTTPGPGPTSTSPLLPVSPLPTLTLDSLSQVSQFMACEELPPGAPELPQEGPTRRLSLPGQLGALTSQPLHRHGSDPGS

Structure (SMILES) | hERG current change (%, negative = inhibition) at 10uM
COC(=O)C1=C(N)Oc2cc(C)[nH]c(=O)c2C1c1ccncc1 (stereo not shown) | 8.32%
COc1cc(C(=O)Nc2c(C(=O)N3CCOCC3)oc3ccccc23)cc(OC)c1OC | -10%
CC(C)OC(=O)CN1C(=O)S/C(=C/c2ccc(N3CCCCC3)o2)C1=O | -6.27%
O=C(CCCN1C(=O)/C(=C\c2cccs2)SC1=S)Nc1cc([N+](=O)[O-])ccc1O | 34.5%
CCOC(=O)C1=C(c2ccccc2)N=C2SCC(=O)N2C1c1ccc(OC)c(OC)c1 (stereo not shown) | -11.9%
CCN(c1ccccc1)S(=O)(=O)c1nnc(NC(=O)C(C)(C)C)s1 | 13.9%
COc1cc2ccccc2cc1C(=O)Nc1nccs1 | 0.854%
Cc1cccc(N2CCN(C(=O)c3ccc4c(c3)NC(=O)C(CSCc3cccc(F)c3)N4)CC2)c1C (stereo not shown) | 15.9%
Cc1ccc2nc(SCC(=O)NCc3ccco3)[nH]c2c1 | -0.695%
O=C(CN1C(=O)c2cccnc2Oc2ccc(Cl)cc21)N1CCOCC1 | 14.9%
O=c1cc(N2CCOCC2)[nH]c(=O)n1-c1ccc(Br)cc1 | 17.2%
C/C(=N\OCc1ccc(C#N)cc1)c1ccc(S(=O)(=O)N(C)C)cc1 | -52.7%
Cc1c([N+](=O)[O-])c([N+](=O)[O-])nn1CC(=O)NCc1cccnc1 | 12.3%
CCOC(=O)N1CCN(c2ncnc3c2[nH]c2ccc(OC)cc23)CC1 | -44.1%
Brc1ccc2[nH]cc(/C=N/N3CCCCC3)c2c1 | 6.01%
NS(=O)(=O)c1ccc(-n2cccc2C=O)cc1 | 30.7%
CN1CCN(C(=O)c2ccc(C(F)(F)F)cc2)CC1.Cl | 26.7%
COc1ccc(Cl)c(Cn2c(NCCCN(C)C)nc3c2c(=O)n(C)c(=O)n3C)c1 | -34.1%
c1ccc(CN2CCC3(CC2)Nc2ccccc2CO3)cc1 | -21.9%
O=C(c1ccccc1F)N1CCN(c2ccc([N+](=O)[O-])c(N3CCOCC3)c2)CC1 | 14.2%
O=C(O)c1cc2ccccc2c(=O)s1 | 12.6%
COc1cc(C(=O)NCCOc2ccccc2)cc(OC)c1OC | 12.9%

Structure (SMILES) | hERG current change (%, negative = inhibition) at 10uM
Cc1ccc(OCC(O)CNCc2ccc(F)cc2)cc1 (stereo not shown) | -40.5%
O=C(Nc1ccc(C(=O)O)cc1)/C(=C\C=C\c1ccccc1)NC(=O)c1ccccc1Br | 1.27%
COCCCN(C(=O)CSCc1c(C)noc1C)c1c(N)n(Cc2ccccc2)c(=O)[nH]c1=O | 16.5%
CCCCCCC(=O)N(O)C1CC(=O)N(c2ccc(Br)cc2)C1=O (stereo not shown) | 2.86%
O=C(NNC(=O)c1c(O)c2ccccc2[nH]c1=O)c1ccccc1Br | -6.94%
COc1ccc(CN(C)Cc2ccccc2)c(OC)c1OC | -16.9%
COc1ccc(Cl)cc1NC(=O)c1cccnc1 | 11%
O=C(Nc1ccc2c(c1)OCO2)c1ccc(Br)c(S(=O)(=O)N2CCCC2)c1 | 11.1%
Cn1c(=O)c2c(nc(CN3CCN(C(=O)c4ccco4)CC3)n2Cc2cccc(Cl)c2)n(C)c1=O | -60.1%
COc1ccc(OC)c(NC(=O)C2CC(/C=C/c3ccccc3)=NO2)c1 (stereo not shown) | 20.6%
Cn1c(=O)cc(SCC(=O)N2CCN(c3ccccn3)CC2)c2ccccc21 | -36.9%
CC(=O)N1CCN(C(=O)c2cc(-c3cccc4ccccc34)nc3ccccc23)CC1 | -28.9%
CCNC(=S)N/N=C/c1ccc(-c2ccccc2)o1 | 3.43%
Cc1ccccc1C(=O)NNC(=S)NC(=O)c1cccs1 | 23.4%
O=C(CNS(=O)(=O)c1ccccc1)N/N=C\c1ccc(Cl)cc1 | -11%
Cc1cc(NC(=O)CCNS(=O)(=O)c2ccc3[nH]c(=O)oc3c2)ccc1Br | 17.9%
CO.COc1ccc(Nc2nc(Nc3ccc(OC)cc3)nc(SC3=NCCS3)n2)cc1 | 14.2%
Cc1ccc(/C=C2\SC(=S)N(CC3CCCO3)C2=O)o1 (stereo not shown) | -4.54%
CC(C)Cc1nc2oc3c(=O)[nH]cnc3c2c2c1CCCC2 | -6.24%
COCCN1Cc2cc3cc(C)ccc3nc2SC1=Nc1ccc(OC)cc1 | 7.73%
O=C1CCCN1CC(CN1CCOCC1)Sc1nnnn1-c1ccccc1 (stereo not shown) | -7.49%
CCOC(=O)c1c(C)[nH]c(C)c1C(=O)COC(=O)c1cc2ccccc2cc1OC | 0.924%

Structure (SMILES) | hERG current change (%, negative = inhibition) at 10uM
CCC1CCCCN1C/C=C/c1ccccc1[N+](=O)[O-] (stereo not shown) | -60.2%
Nc1ccccc1C(=O)NCc1ccc(Cl)cc1 | -5.14%
O=C(Nc1cc(S(=O)(=O)N2CCOCC2)ccc1N1CCOCC1)c1cc(=O)[nH]c2ccccc12 | 6.32%
CCCCCCc1cc2cc(S(=O)(=O)c3ccc(Cl)cc3)c(=O)oc2cc1O | 12.9%
Cc1nc(-c2ccc(NC(=O)c3ccc(Br)o3)cc2)cs1 | 4.44%
COc1cccc(CNC(=O)c2cc(C)nc3ccccc23)c1 | 4.44%
COC(=O)C(O)(c1c(C)[nH]n(-c2ccccc2)c1=O)C(F)(F)F (stereo not shown) | 23%
CC1(c2nnc(-c3ccc(Cl)cc3)o2)CC(c2ccc([N+](=O)[O-])cc2)=NO1 (stereo not shown) | -15.6%
COc1ccccc1NC(=O)CNC(c1ccccc1)c1ccccc1 | 1.36%
COc1ccccc1N1CCN(C(=O)Nc2ccc([N+](=O)[O-])cc2)CC1 | -52.4%
Cc1c(Cc2ccccc2)c(=O)oc2cc(OCC(=O)N3CCC(C(=O)O)CC3)ccc12 | 6.24%
CCOC(=O)CC1=C(C(=O)OCC)C2(C(=O)N1)C(C(=O)OC)=C(N)Oc1ccccc12 (stereo not shown) | -7.95%
O=C(OCC(=O)N1CCCC1)c1ccc(S(=O)(=O)N2CCOCC2)cc1 | 15.7%
NC(=S)N/N=C/c1ccc2ccccc2c1 | 18.1%
CCOCCOC(=O)c1[nH]c2c(c1C)C(=O)CC(c1ccccc1)C2 (stereo not shown) | 7.35%
CC(=O)OCC1=C(C(=O)O)N2C(=O)C(NC(=O)c3ccc(COc4ccc(Cl)cc4)o3)C2SC1 (stereo not shown) | -12%
NC(N)=NS(=O)(=O)c1ccc(NC(=S)NC(=O)Cc2ccc(Cl)cc2)cc1 | 28.8%
S=C(NCc1ccco1)N1CCC(c2nc3ccccc3o2)CC1 | -21%
CCCCN1CC(=O)N2[C@H]3c4ccc(OC)cc4OC[C@@H]3[C@H](c3ccccc3)[C@]2(C)C1=O | -8.54%
COc1ccc(NC(=O)C2C3CCC(O3)C2C(=O)O)c(OC)c1 (stereo not shown) | 23.1%
CCc1nc2c(C#N)c(-c3ccc(Cl)cc3)ccn2n1 | -16.6%
Cc1ccccc1NC(=O)C1Cc2ccccc2CN1C(=O)OCc1ccccc1 (stereo not shown) | -31.2%

Structure (SMILES) | hERG current change (%, negative = inhibition) at 10uM
COc1ccc(-c2n[nH]c(=S)n2-c2ccc3c(c2)OCCO3)cc1 | 7.68%
CCOc1ccc(N2C(=O)Nc3ccccc3C2(O)C(=O)NCc2ccco2)cc1 (stereo not shown) | -3.71%
Cc1ccc(S(=O)(=O)n2c(N)nc3ccccc32)cc1 | 10.1%
N#C/C(=C/c1ccc(N2CCOCC2)o1)c1ccc(Cl)cc1 | 0.0249%
O=c1c2cnn(-c3ccccc3)c2ncn1Cc1ccccn1 | 3.09%
O=C(NCCCCCCNC(=O)OC1CCS(=O)(=O)C1)OC1CCS(=O)(=O)C1 (stereo not shown) | 11%
CC1=C(C(=O)OC(C)C)C(c2ccccn2)n2ncnc2N1 (stereo not shown) | 1.52%
COc1cccc(NC(=O)COc2ccc(Br)c(C)c2)c1 | 25.8%
CN(Cc1ccc(F)cc1)S(=O)(=O)c1nnc(NC(=O)c2ccccc2Br)s1 | -15.9%
COC(=O)CNC(=O)c1cn(CC(C)C)c(=O)c2cc(OC)c(OC)cc12 | -9.4%
COc1ccccc1C(=O)Nc1ccccc1N1CCCCC1 | -22.4%
CC(C)(C)C1CCc2[nH]nc(C(=O)O)c2C1 (stereo not shown) | 16%
CCN(CC)CC(=O)c1c[nH]c2ccccc12 | 3.05%
CCCN(Cc1cc2cc(OC)ccc2[nH]c1=O)C(=O)c1ccco1 | -19.5%
CCOc1ccc(OCCCCN2CCCC2)cc1.O=C(O)C(=O)O | -12.2%
CN(C(=O)CSC(=O)c1ccccc1)c1ccccc1 | 30.9%
Cc1ccc(-n2c(COc3cccc(C)c3)n[nH]c2=S)cc1 | -3.28%
O=C(Nc1cccc(-c2ccc3nncn3n2)c1)c1ccco1 | -10.1%
CCCC(=O)C1=C(O)C(C(=O)OC)C(C)(C)CC1=N (stereo not shown) | 19.9%
O=C(Nc1ccc(N2CCCCC2)c(Cl)c1)c1ccc(N2CCOCC2)c([N+](=O)[O-])c1 | 8.11%
COc1ccc(NC(=S)NC(=O)/C=C/c2cccs2)cc1 | -2.84%
CCn1ccnc1CN1CCC(n2nccc2NC(=O)CCc2ccccc2)CC1 | -3.91%
